Assay results as given in article PMC6203859, “Non-catalytic signaling by pseudokinase ILK for regulating cell adhesion” (Nature Communications, 2018).

Target: full-length human ILK (C346S; C422S), subunit of the coexpressed IPP complex (human, UniProt Q13418 1-452, C346S | C422S)
Assay: SEC; purified IPP complex (coexpressed in E. coli, co-purified by Ni affinity on His6-PINCH-1) on Superose 6 10/300 GL
Conditions: both partners purified

B1: full-length human PINCH-1 (hexahistidine-tagged), subunit of the coexpressed IPP complex (natural protein)
chain: not shown
  binding result: binds
